These are yes or no findings as the source states them, for the method shown. In cells and extracts the contact can be indirect. Some results given as binding are weak or reduced against the parent protein; the word gives no strength. For part of these data: Where a sequence is shown, tags or fusion partners need not be part of it.
Columns and labels:
Assay in all cases: split reporter; BiFC: cYFP and nYFP fusion constructs (20 μg each) co-transfected into Arabidopsis mesophyll protoplasts (PEG-calcium), 16–18 h in the dark at room temperature, confocal laser scanning microscopy; signal restricted to the nucleus
ARF3-cYFP (Arabidopsis) = target: T1, ARF3-cYFP (Arabidopsis) (UniProt O23661)
T1 sequence: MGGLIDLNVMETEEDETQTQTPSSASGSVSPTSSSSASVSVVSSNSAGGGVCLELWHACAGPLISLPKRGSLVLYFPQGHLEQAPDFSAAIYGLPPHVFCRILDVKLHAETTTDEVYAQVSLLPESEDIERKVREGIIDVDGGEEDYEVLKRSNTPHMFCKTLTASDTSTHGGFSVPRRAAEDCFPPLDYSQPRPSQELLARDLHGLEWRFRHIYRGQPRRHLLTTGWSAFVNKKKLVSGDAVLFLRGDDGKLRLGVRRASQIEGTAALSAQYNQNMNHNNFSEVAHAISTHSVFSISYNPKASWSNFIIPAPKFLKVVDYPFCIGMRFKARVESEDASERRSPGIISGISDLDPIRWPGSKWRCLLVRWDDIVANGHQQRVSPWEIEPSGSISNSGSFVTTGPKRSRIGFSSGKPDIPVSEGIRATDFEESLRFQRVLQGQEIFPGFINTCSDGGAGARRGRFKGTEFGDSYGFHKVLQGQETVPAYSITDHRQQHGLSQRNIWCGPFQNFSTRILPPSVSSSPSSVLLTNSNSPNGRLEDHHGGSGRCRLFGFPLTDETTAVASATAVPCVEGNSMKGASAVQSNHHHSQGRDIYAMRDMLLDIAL

By UniProt entry, the sequences of proteins in these tests, tags left out.
UniProt Q9SUP6: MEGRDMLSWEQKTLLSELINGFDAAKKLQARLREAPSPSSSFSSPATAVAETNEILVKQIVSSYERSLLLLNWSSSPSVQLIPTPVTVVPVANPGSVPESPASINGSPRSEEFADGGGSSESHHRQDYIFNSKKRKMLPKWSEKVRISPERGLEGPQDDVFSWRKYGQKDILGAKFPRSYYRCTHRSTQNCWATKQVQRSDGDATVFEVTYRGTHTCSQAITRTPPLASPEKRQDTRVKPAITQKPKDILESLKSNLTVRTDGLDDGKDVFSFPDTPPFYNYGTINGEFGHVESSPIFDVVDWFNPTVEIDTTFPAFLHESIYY
UniProt Q9C5T4: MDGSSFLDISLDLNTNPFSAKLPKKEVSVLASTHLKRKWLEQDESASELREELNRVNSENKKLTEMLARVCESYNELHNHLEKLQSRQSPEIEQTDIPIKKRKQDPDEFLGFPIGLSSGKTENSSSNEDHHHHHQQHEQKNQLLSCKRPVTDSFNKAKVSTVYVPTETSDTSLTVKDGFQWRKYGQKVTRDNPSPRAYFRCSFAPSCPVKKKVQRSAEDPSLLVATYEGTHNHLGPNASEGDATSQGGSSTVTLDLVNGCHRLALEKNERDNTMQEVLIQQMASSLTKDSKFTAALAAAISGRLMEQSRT
UniProt Q9SK33: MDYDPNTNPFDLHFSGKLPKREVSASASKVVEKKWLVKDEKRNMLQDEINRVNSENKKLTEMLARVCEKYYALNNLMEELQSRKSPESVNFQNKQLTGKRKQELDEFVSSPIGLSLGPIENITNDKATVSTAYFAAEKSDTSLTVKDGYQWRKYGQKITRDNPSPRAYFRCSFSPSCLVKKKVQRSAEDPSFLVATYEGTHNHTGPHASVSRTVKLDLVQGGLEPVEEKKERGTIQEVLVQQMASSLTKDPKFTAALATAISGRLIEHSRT

ARF5 (Arabidopsis) = target: T2, ARF5 (Arabidopsis) (UniProt P93024)
T2 sequence: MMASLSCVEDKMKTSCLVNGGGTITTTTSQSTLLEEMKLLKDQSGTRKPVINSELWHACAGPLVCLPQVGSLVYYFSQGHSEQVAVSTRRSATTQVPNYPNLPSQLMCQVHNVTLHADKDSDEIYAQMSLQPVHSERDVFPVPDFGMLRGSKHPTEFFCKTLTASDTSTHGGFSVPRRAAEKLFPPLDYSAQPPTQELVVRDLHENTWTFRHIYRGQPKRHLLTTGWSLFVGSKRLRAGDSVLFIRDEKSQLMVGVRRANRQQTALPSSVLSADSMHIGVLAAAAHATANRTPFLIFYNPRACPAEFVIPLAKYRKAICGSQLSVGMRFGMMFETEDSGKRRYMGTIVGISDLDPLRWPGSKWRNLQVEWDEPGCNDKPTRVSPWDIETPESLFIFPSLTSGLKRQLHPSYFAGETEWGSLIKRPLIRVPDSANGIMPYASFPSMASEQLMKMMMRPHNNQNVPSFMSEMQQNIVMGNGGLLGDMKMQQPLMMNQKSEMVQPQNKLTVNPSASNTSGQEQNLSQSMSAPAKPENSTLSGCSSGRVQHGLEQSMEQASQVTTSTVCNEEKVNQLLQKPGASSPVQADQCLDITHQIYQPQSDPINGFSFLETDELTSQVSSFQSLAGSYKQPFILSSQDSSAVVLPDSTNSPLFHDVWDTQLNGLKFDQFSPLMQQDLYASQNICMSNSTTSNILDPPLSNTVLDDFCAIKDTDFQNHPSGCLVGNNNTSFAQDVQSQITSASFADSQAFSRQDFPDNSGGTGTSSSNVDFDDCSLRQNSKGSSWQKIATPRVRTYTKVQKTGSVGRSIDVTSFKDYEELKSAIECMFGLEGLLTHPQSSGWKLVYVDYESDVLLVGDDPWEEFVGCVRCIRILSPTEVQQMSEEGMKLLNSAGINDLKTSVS

[1] = target: T3, ARF5Δ722-cYFP (Arabidopsis) (UniProt P93024)
T3 sequence: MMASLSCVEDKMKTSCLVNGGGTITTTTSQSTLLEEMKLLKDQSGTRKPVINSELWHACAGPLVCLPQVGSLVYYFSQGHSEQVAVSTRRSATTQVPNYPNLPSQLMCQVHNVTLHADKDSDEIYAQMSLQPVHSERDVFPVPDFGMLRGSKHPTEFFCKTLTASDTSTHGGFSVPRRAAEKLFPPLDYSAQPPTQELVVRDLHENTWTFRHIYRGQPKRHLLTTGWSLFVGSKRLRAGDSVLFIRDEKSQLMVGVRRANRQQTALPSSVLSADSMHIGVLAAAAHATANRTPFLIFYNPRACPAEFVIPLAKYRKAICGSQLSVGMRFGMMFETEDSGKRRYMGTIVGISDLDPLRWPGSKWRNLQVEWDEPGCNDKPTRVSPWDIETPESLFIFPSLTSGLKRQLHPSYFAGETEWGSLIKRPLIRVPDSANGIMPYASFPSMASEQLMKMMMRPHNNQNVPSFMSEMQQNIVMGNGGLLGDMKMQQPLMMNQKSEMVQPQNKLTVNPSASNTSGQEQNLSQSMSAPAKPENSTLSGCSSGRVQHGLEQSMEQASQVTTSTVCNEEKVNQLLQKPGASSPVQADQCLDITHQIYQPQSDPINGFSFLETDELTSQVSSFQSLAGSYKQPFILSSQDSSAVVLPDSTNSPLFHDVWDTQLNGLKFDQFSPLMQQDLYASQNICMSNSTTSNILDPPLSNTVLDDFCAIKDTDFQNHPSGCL

WRKY40 (Arabidopsis) = target: T4, WRKY40 (Arabidopsis) (UniProt Q9SAH7)
T4 sequence: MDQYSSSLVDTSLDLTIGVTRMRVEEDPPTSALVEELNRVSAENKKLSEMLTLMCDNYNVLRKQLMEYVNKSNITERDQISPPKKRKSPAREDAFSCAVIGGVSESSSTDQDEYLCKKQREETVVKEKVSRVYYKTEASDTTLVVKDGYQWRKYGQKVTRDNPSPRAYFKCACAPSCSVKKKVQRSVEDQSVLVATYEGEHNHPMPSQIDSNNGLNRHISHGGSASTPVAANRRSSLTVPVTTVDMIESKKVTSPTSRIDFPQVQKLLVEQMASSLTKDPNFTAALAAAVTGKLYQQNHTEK

[2] = target: WRKY53-cYFP (Arabidopsis) (UniProt Q9SUP6)

Substance	binding (ARF3-cYFP (Arabidopsis))	binding (ARF5 (Arabidopsis))	binding [1]	binding (WRKY40 (Arabidopsis))	binding [2]
WRKY18-nYFP (from UniProt Q9C5T4 1-310)	no binding	binds	no binding	binds	–
WRKY60-nYFP (from UniProt Q9SK33 1-271)	no binding	binds	no binding	binds	no binding

— paper PMC4304707
